In the supplement of paper PMC9446081:
The whole screen tested about 39,000 compounds, of which about 220 (0.56%) showed activity. The list shows a part of the results.
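Further: static incubation at 37 °C against the wild-type strain, values averaged over two biological replicates.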

What follows are molecules tested on Escherichia coli K-12 BW25113 (assay: relative growth (OD600 normalised to plate interquartile mean) (fraction); higher = less growth inhibition, active = 0.2 or less). Settings: 50 µM; LB; incubation time: overnight (16-24 h).
With `C[C@@H]1CN([C@@H](C)CO)C(=O)c2cccc(NC(=O)C3CC3)c2O[C@@H]1CN(C)Cc1ccc(Oc2ccccc2)cc1` the relative growth was inactive: 1.03.
With `C[C@@H]1CCCCO[C@H](CN(C)CC2CC2)[C@H](C)CN([C@@H](C)CO)C(=O)c2cc(NC(=O)Nc3ccc(F)cc3)ccc2O1` the relative growth was inactive: 1.05.
In the case of `C[C@H](CO)N1C[C@H](C)[C@@H](CN(C)C(=O)c2ccccc2)OCCCC[C@H](C)Oc2ccc(NS(=O)(=O)c3ccc(F)cc3)cc2C1=O`, the relative growth is reported as inactive: 0.98.
With `C[C@H](CO)N1C[C@H](C)[C@H](CN(C)S(=O)(=O)c2ccc(Cl)cc2)OCCCC[C@H](C)Oc2ccc(NC(=O)Nc3ccc(F)cc3)cc2C1=O` the relative growth was inactive: 0.991.
For `CCN1CCCC1CNC(=O)c1cc(S(=O)(=O)CC)c(N)cc1OC` (stereo unspecified), the relative growth was inactive: 0.797.
In the case of `C[C@@H]1CN([C@H](C)CO)C(=O)Cc2cc(NC(=O)Nc3cccc4ccccc34)ccc2O[C@@H]1CN(C)Cc1ccncc1`, the relative growth is reported as inactive: 0.976.
With `COc1ccccc1S(=O)(=O)N[C@@H]1CC[C@H](CCNC(=O)C2CCOCC2)O[C@@H]1CO` the relative growth was inactive: 0.996.
`Cc1ccc(S(=O)(=O)Nc2cccc3c2O[C@H](CN(C)Cc2ccc(C(F)(F)F)cc2)[C@H](C)CN([C@H](C)CO)C3=O)cc1` was tested, and the relative growth was inactive: 1.
In the case of `C[C@@H]1CN([C@@H](C)CO)C(=O)c2cc(NC(=O)CCC(F)(F)F)ccc2O[C@@H](C)CCCCO[C@@H]1CN(C)S(=O)(=O)c1ccccc1`, the relative growth is reported as inactive: 1.02.
In the case of `Cc1cc(C(=O)Nc2cccc3c2O[C@@H](CN(C)Cc2ccccc2)[C@@H](C)CN([C@@H](C)CO)C3=O)n(C)n1`, the relative growth is reported as inactive: 0.951.
For `CC(=O)O[C@@H]1[C@@H](O)C[C@@]2(C)[C@@H](CC[C@@H](C)[C@@]23Cc2c(O)cc4c(c2O3)CN([C@@H](CCC(=O)O)C(=O)O)C4=O)C1(C)C`, the relative growth was inactive: 1.02.
For `CCCC(=O)Nc1ccc2c(c1)OC[C@@H](C)N(Cc1cc(-c3ccccc3)on1)C[C@@H](C)[C@H](OC)CN(C)C2=O`, the relative growth was inactive: 1.
In the case of `CO[C@@H]1CN(C)C(=O)c2cc(NC(=O)C3CC3)ccc2OC[C@@H](C)N(C(=O)Cc2ccccn2)C[C@H]1C`, the relative growth is reported as inactive: 0.973.
For `COc1cccc(S(=O)(=O)N(C)C[C@H]2Oc3cc(C#CCN(C)C)ccc3S(=O)(=O)N([C@@H](C)CO)C[C@H]2C)c1`, the relative growth was inactive: 1.04.
`CCCC(=O)Nc1ccc2c(c1)OC[C@H](C)N(S(=O)(=O)c1cn(C)cn1)C[C@@H](C)[C@H](OC)CN(C)C2=O` was tested, and the relative growth was inactive: 1.02.
`CO[C@@H](CN(C)S(=O)(=O)c1cccc(Cl)c1)[C@H](C)CN([C@H](C)CO)S(=O)(=O)c1ccc(Cl)cc1` was tested, and the relative growth was inactive: 1.04.
